Reference: publication PMC4336329 (PLoS ONE, 2015)
Screen size: about 310,000 compounds; about 2,200 (0.71%) showed an effect of 50% or more. The effect is printed as a negative number. Some of the results follow.

These molecules were tested against human ether-à-go-go-related gene (hERG) potassium channel (human, UniProt Q12809) (assay: primary screen, population patch clamp on CHO cells stably expressing hERG).
human ether-à-go-go-related gene (hERG) potassium channel, sequence (Q12809 whole entry, looked up): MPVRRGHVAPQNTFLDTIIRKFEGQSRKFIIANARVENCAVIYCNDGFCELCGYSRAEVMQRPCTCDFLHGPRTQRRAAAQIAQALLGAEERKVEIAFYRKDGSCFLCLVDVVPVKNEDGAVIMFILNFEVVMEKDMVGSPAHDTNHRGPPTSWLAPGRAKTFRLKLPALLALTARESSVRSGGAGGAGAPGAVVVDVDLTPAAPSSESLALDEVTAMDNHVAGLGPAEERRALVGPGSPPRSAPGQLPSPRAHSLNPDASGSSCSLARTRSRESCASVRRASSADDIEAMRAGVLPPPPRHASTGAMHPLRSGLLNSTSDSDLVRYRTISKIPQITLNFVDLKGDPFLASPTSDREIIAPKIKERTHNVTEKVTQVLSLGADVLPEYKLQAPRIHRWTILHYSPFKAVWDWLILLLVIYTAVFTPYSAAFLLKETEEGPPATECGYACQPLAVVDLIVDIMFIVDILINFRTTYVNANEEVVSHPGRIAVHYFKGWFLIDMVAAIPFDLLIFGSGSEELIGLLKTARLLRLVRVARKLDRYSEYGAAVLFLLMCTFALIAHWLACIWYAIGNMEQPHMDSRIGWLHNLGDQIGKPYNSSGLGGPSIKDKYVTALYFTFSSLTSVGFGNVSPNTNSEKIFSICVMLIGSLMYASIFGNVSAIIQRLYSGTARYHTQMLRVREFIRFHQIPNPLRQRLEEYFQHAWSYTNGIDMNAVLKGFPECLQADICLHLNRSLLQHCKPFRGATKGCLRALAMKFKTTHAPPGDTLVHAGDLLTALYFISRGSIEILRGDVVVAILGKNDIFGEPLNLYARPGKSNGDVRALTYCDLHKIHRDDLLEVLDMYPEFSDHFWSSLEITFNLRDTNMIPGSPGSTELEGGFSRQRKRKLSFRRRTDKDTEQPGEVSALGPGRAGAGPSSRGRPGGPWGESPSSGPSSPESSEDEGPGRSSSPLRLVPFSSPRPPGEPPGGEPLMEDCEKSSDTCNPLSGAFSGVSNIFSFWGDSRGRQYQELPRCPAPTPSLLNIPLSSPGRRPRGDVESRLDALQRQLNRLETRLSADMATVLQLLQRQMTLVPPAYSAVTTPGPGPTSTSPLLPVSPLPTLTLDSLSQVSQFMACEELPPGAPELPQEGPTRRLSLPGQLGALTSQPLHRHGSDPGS

Row | Structure (SMILES) | hERG current change (%, negative = inhibition) at 1uM [%]
1 | Cc1cccc2c1cnn2C(=O)Nc1ccccc1Br | 17.4
2 | CCSc1nnc(NC(=O)CSc2nnc(CNC(=O)c3ccc(OC)cc3)o2)s1 | 11.6
3 | CCOC(=O)N/N=C(\C)c1ccc(C)o1 | 15.5
4 | COc1ccccc1NC(=S)NCc1ccco1 | 3.34
5 | COc1ccc2nc(SCC(=O)NC3CCCc4ccccc43)[nH]c2c1 (stereo not drawn) | 6.8
6 | Fc1ccc(NC(=S)NC2CC3CCC(C2)N3Cc2ccco2)cc1 (stereo not drawn) | 3.96
7 | N#Cc1nc(-c2ccc(F)cc2)oc1N1CCC(C(N)=O)CC1 | 5.88
8 | COc1ccc(/C=N/NC(=O)c2ccccc2OCc2ccccc2)c(OC)c1 | -7.53
9 | O=C(CSc1ncnc2nc[nH]c12)N1CCOCC1 | 6.62
10 | O=C(CCCCCNC(=O)N1CCn2c1nc1ccccc12)NCc1ccc(F)cc1 | 2.46
11 | COc1ccc(S(=O)(=O)N2CCC(C(=O)NCCC(=O)Nc3nccs3)CC2)cc1 | 11.8
12 | Cc1ccccc1NC(=O)C(C)OC(=O)CNS(=O)(=O)c1ccc(C#N)cc1 (stereo not drawn) | 9.02
13 | CCOC(=O)C(CC)Sc1nc2c(cnn2-c2ccc(F)cc2)c(=O)[nH]1 (stereo not drawn) | 17.1
14 | CCCN(CCC)C(=O)CC(c1ccccc1)c1ccc(C)cc1O (stereo not drawn) | -3.4
15 | CCCN(C(=O)c1nc2nccc(C)n2n1)c1c(N)n(Cc2ccccc2)c(=O)[nH]c1=O | 5.88
16 | CCOc1ccc(S(=O)(=O)NCCC(=O)OC(C)C(=O)N2CCc3ccccc32)cc1 (stereo not drawn) | 13.6
17 | Cc1cccc(Cn2c(SCCO)nc3c2c(=O)n(C)c(=O)n3C)c1 | -0.143
18 | Cn1[nH]c(C(F)(F)F)cc1=O | 4.98
19 | CN(C)S(=O)(=O)c1cc(NC(=O)c2ccc(-n3ccnc3)c([N+](=O)[O-])c2)ccc1Cl | 12.7

Row | Structure (SMILES) | hERG current change (%, negative = inhibition) at 1uM [%]
20 | CCOc1ccc2c(c1)sc1nc(C(=O)OC)cc(=O)n12 | -1.25
21 | O=C(NC1CC2CCCC(C1)N2C(=O)NC1CCCCC1)c1ccc(F)cc1 (stereo not drawn) | 13
22 | CCCCN(C(=O)CSCC(=O)Nc1ccc(C)cc1)c1c(N)n(CC(C)C)c(=O)[nH]c1=O | 12.1
23 | Cc1ccc(SC(c2ccc(C)cc2)C(Cn2cncn2)C(=O)c2ccccc2)cc1 (stereo not drawn) | 10.6
24 | CCCCn1c(O)c(C(C)=NCc2cc(OC)cc(OC)c2)c(=O)[nH]c1=O | -18.3
25 | Cc1ccc(NS(=O)(=O)c2c(C)[nH]c(C)c2C(=O)N2CCCCC2)c(C)c1 | 15.8
26 | COc1ccc(C(=O)N=c2sc3ccccc3n2C)cc1 | 5.03
27 | COC(=O)c1sc(-c2ccc(Cl)cc2)cc1NC(=O)CSCC(=O)O | 15.7
28 | COc1ccc(CN2CCN(Cc3ccco3)CC2)cc1.O=C(O)C(=O)O | 12.3
29 | COc1ccc2cc3cc(C(=O)NCCN4CCc5ccccc5C4)oc3nc2c1 | -19.7
30 | CCOC(=O)c1cnc2c(c(C)nn2C)c1Oc1ccc(OC)cc1 | 6.03
31 | COc1cc(C(C[N+](=O)[O-])c2c(C)[nH]c3ccccc23)cc(OC)c1OC (stereo not drawn) | 23.4
32 | Cc1ccc(C)c(OCCC(=O)OCC(=O)c2c(N)n(C)c(=O)n(C)c2=O)c1 | -10.1
33 | CC(=O)Nc1ccc(NC(=O)COc2ccc(-c3ccccc3)cc2)cc1 | 8.95
34 | CCC1CN(C(=O)N2CCC(C(=O)NCc3ccc(OC)cc3OC)CC2)c2ccccc2O1 (stereo not drawn) | 4.61
35 | COc1ccccc1N1CCN(C(C)C(=O)N2CC(C)OC(C)C2)CC1.O=C(O)C(=O)O (stereo not drawn) | 9.39
36 | COC(=O)CSC1=NP(=S)(SCC(=O)OC)N2CCCC2=C1C#N (stereo not drawn) | 4.83
37 | CCOc1ccc(C2NC(=S)NC3=C2CCc2ccccc23)cc1 (stereo not drawn) | 4.39
38 | O=C(CSc1nnc(CNC(=O)c2cccs2)o1)Nc1cccc(Cl)c1 | 14.7

Row | Structure (SMILES) | hERG current change (%, negative = inhibition) at 1uM [%]
39 | COCCn1nnnc1C(c1ccc(OC)cc1)N1CCC(C)CC1 (stereo not drawn) | 10.2
40 | O=Cc1ccc2cccnc2n1 | 8.82
41 | Cc1ccc(CNc2ccc(N3C(=O)CCCC3=O)cc2[N+](=O)[O-])cc1 | 2.32
42 | Cc1nnc2n(Cc3ccccc3)c(=O)c3c4c(sc3n12)COC(C(C)C)C4 (stereo not drawn) | 9.28
43 | CC1=C(C(=O)Nc2cccc(C(=O)NC(C)c3ccccc3)c2)SCCO1 (stereo not drawn) | 14.8
44 | CC(=O)CCC(C)=O | 15.9
45 | O=C(COC(=O)C1CCN(c2ccc(C(F)(F)F)cn2)CC1)c1ccccc1 | 2.55
46 | Cc1ccc(OCCC(=O)O)cc1 | 17.1
47 | COc1ccc(CCNC(=O)NS(=O)(=O)c2ccc(C)cc2)cc1OC | 12.7
48 | COC(=O)C1C(C(C)C)N(c2ccccc2)OC1(C)O (stereo not drawn) | 8.27
49 | NS(=O)(=O)c1ccc(NC(=O)C2Cc3ccccc3CN2C(=O)c2ccco2)cc1 (stereo not drawn) | 12.1
50 | Cc1cccc(NC(=O)N2CCCC2)c1 | 12.9
51 | CCN1C(=O)[C@H]2[C@@H](c3ccc(C)cc3)N3C(=O)N(c4cccc(Cl)c4)C(=O)[C@@]3(CC(C)C)[C@H]2C1=O | 6.3
52 | COc1ccc2oc(=O)c(C(=O)N3CCCc4ccccc43)cc2c1 | -32.7
53 | COc1ccc([C@H]2CC(=O)C=C(c3c(OC)cccc3OC)C2)cc1 | 3.15
54 | CC(=O)c1ccc(S(=O)(=O)NCC(=O)Nc2nc3ccccc3[nH]2)cc1 | 6.02
55 | O=C(C1CCC1)N1CCc2cc(S(=O)(=O)NCC3COc4ccccc4O3)ccc21 (stereo not drawn) | -5.84
56 | Cc1cc(C)n2nc(SCc3nnc(SCc4ccccc4Cl)s3)nc2n1 | 8.43
57 | FC(F)Oc1ccc(NC(=S)Nc2ccc3cn[nH]c3c2)cc1 | -30.4
